Measurements taken from patent publication US11685745B2, “Substituted benzoxazole and benzofuran compounds as PDE7 inhibitors” (Dart NeuroScience, LLC, priority 2017, dated 2023).

Biological target: N-terminal truncated recombinant human PDE7B enzyme (Homo sapiens (Human), UniProt Q9NP56)
Experiment: biochemical

| SMILES | IC50 [nM] |
| --- | --- |
| O=C1Nc2c(Cl)cc3nc(CN4CC5CC4CO5)oc3c2C2(CCCCC2)N1 (centres unmarked) [Example 87, 5-Chloro-2-{2-oxa-5-azabicyclo[2.2.1]heptan-5-ylmethyl}-7,8-dihydro-6H-spiro[[1,3]oxazolo[5,4-f]quinazoline-9,1′-cyclohexane]-7-one] | 10 to 100 |
| O=C1Nc2c(Cl)cc3cc(CN4CCCCC4CO)oc3c2C2(CCCCC2)N1 (centres unmarked) [Example 561, 5′-Chloro-2′-{[2-(hydroxymethyl)piperidin-1-yl]methyl}-7′,8′-dihydro-6′H-spiro[cyclohexane-1,9′-furo[2,3-f]quinazoline]-7′-one] | 100 to 1000 |
| Cn1ccc(CNCc2cc3cc(Cl)c4c(c3o2)C2(CCCCC2)NC(=O)N4)n1 [Example 470, 5′-Chloro-2′-({[(1-methyl-1H-pyrazol-3-yl)methyl]amino}methyl)-7′,8′-dihydro-6′H-spiro[cyclohexane-1,9′-furo[2,3-f]quinazoline]-7′-one] | 10 to 100 |
| Cc1ccc(CNC(=O)c2cc3cc(Cl)c4c(c3o2)C2(CCCCC2)NC(=O)N4)cn1 [Example 342, 5′-Chloro-N-[(6-methylpyridin-3-yl)methyl]-7′-oxo-7′,8′-dihydro-6′H-spiro[cyclohexane-1,9′-furo[2,3-f]quinazoline]-2′-carboxamide] | 10 to 100 |
| COc1cccc(CNC(=O)c2cc3cc(Cl)c4c(c3o2)C2(CCCCC2)NC(=O)N4)c1OC [Example 294, 5′-Chloro-N-[(2,3-dimethoxyphenyl)methyl]-7′-oxo-7′,8′-dihydro-6′H-spiro[cyclohexane-1,9′-furo[2,3-f]quinazoline]-2′-carboxamide] | 10 to 100 |
| COc1cncc(CNCc2nc3cc(Cl)c4c(c3o2)C2(CCCCC2)NC(=O)N4)c1 [Example 61, 5-Chloro-2-({[(5-methoxypyridin-3-yl)methyl]amino}methyl)-7,8-dihydro-6H-spiro[[1,3]oxazolo[5,4-f]quinazoline-9,1′-cyclohexane]-7-one] | 10 to 100 |
| Cc1n[nH]c(C)c1CCN(C)Cc1cc2cc(Cl)c3c(c2o1)C1(CCCCC1)NC(=O)N3 [Example 546, 5′-Chloro-2′-({[2-(3,5-dimethyl-1H-pyrazol-4-yl)ethyl](methyl)amino}methyl)-7′,8′-dihydro-6′H-spiro[cyclohexane-1,9′-furo[2,3-f]quinazoline]-7′-one] | 10 to 100 |
| O=C1CN(Cc2cc3cc(Cl)c4c(c3o2)C2(CCCCC2)NC(=O)N4)CCN1 [Example 469, 5′-Chloro-2′-[(3-oxopiperazin-1-yl)methyl]-7′,8′-dihydro-6′H-spiro[cyclohexane-1,9′-furo[2,3-f]quinazoline]-7′-one] | 100 to 1000 |
| CO[C@@H]1CCN(C(=O)c2nc3cc(Cl)c4c(c3o2)C2(CCCCC2)NC(=O)N4)C1 [Example 206, 5-Chloro-2-[(3R)-3-methoxypyrrolidine-1-carbonyl]-7,8-dihydro-6H-spiro[[1,3]oxazolo[5,4-f]quinazoline-9,1′-cyclohexane]-7-one] | 10 to 100 |
| CO[C@H]1CCCN(Cc2nc3cc(Cl)c4c(c3o2)C2(CCCCC2)NC(=O)N4)C1 [Example 118, 5-Chloro-2-{[(3S)-3-methoxypiperidin-1-yl]methyl}-7,8-dihydro-6H-spiro[[1,3]oxazolo[5,4-f]quinazoline-9,1′-cyclohexane]-7-one] | 10 to 100 |
| CN(C)CCN(C)Cc1nc2cc(Cl)c3c(c2o1)C1(CCCCC1)NC(=O)N3 [Example 122, 5-Chloro-2-({[2-(dimethylamino)ethyl](methyl)amino}methyl)-7,8-dihydro-6H-spiro[[1,3]oxazolo[5,4-f]quinazoline-9,1′-cyclohexane]-7-one] | 100 to 1000 |
| O=C1Nc2c(Cl)cc3cc(C(=O)NCCCn4ccnc4)oc3c2C2(CCCCC2)N1 [Example 261, 5′-Chloro-N-[3-(1H-imidazol-1-yl)propyl]-7′-oxo-7′,8′-dihydro-6′H-spiro[cyclohexane-1,9′-furo[2,3-f]quinazoline]-2′-carboxamide] | 10 to 100 |
| CCCc1nc2cc(Cl)c3c(c2o1)C1(CCCCC1)NC(=O)N3 [Example 16, 5′-Chloro-2′-propyl-6′H-spiro[cyclohexane-1,9′-oxazolo[5,4-f]quinazolin]-7′(8′H)-one] | 10 to 100 |
| Cc1cc(C)n(CCCN(C)Cc2cc3cc(Cl)c4c(c3o2)C2(CCCCC2)NC(=O)N4)n1 [Example 551, 5′-Chloro-2′-({[3-(3,5-dimethyl-1H-pyrazol-1-yl)propyl](methyl)amino}methyl)-7′,8′-dihydro-6′H-spiro[cyclohexane-1,9′-furo[2,3-f]quinazoline]-7′-one] | 10 to 100 |
| O=C1Nc2c(Cl)cc3nc(CN[C@H]4CCCOC4)oc3c2C2(CCCCC2)N1 [Example 152, 5-Chloro-2-({[(3S)-oxan-3-yl]amino}methyl)-7,8-dihydro-6H-spiro[[1,3]oxazolo[5,4-f]quinazoline-9,1′-cyclohexane]-7-one] | 10 to 100 |
| CC1(C)CN(Cc2cc3cc(Cl)c4c(c3o2)C2(CCCCC2)NC(=O)N4)CCO1 [Example 552, 5′-Chloro-2′-[(2,2-dimethylmorpholin-4-yl)methyl]-7′,8′-dihydro-6′H-spiro[cyclohexane-1,9′-furo[2,3-f]quinazoline]-7′-one] | 10 to 100 |

| SMILES | IC50 [nM] |
| --- | --- |
| CN(Cc1nc2cc(Cl)c3c(c2o1)C1(CCCCC1)NC(=O)N3)CC1(C)COC1 [Example 82, 5-Chloro-2-({methyl[(3-methyloxetan-3-yl)methyl]amino}methyl)-7,8-dihydro-6H-spiro[[1,3]oxazolo[5,4-f]quinazoline-9,1′-cyclohexane]-7-one] | 10 to 100 |
| O=C1COC2(CCN(Cc3nc4cc(Cl)c5c(c4o3)C3(CCCCC3)NC(=O)N5)CC2)C1 [Example 78, 5-Chloro-2-({3-oxo-1-oxa-8-azaspiro[4.5]decan-8-yl}methyl)-7,8-dihydro-6H-spiro[[1,3]oxazolo[5,4-f]quinazoline-9,1′-cyclohexane]-7-one] | 10 to 100 |
| CN(C)C(=O)CCNC(=O)c1cc2cc(Cl)c3c(c2o1)C1(CCCCC1)NC(=O)N3 [Example 353, 3-{5′-Chloro-7′-oxo-7′,8′-dihydro-6′H-spiro[cyclohexane-1,9′-furo[2,3-f]quinazoline]-2′-ylformamido}-N,N-dimethylpropanamide] | 100 to 1000 |
| CNCCN(C)C(=O)c1nc2cc(Cl)c3c(c2o1)C1(CCCCC1)NC(=O)N3 [Example 192, 5-Chloro-N-methyl-N-[2-(methylamino)ethyl]-7-oxo-7,8-dihydro-6H-spiro[[1,3]oxazolo[5,4-f]quinazoline-9,1′-cyclohexane]-2-carboxamide] | 100 to 1000 |
| CCOC(=O)CN1CCN(C(=O)c2cc3cc(Cl)c4c(c3o2)C2(CCCCC2)NC(=O)N4)CC1 [Example 284, Ethyl 2-[4-({5′-chloro-7′-oxo-7′,8′-dihydro-6′H-spiro[cyclohexane-1,9′-furo[2,3-f]quinazoline]-2′-yl}carbonyl)piperazin-1-yl]acetate] | 10 to 100 |
| O=C1Nc2c(Cl)cc3cc(CN4CCC(CO)CC4)oc3c2C2(CCCCC2)N1 [Example 570, 5′-Chloro-2′-{[4-(hydroxymethyl)piperidin-1-yl]methyl}-7′,8′-dihydro-6′H-spiro[cyclohexane-1,9′-furo[2,3-f]quinazoline]-7′-one] | 100 to 1000 |
| O=C1Nc2c(Cl)cc3cc(C(=O)NCCc4ccc5c(c4)CCO5)oc3c2C2(CCCCC2)N1 [Example 380, 5′-Chloro-N-[2-(2,3-dihydro-1-benzofuran-5-yl)ethyl]-7′-oxo-7′,8′-dihydro-6′H-spiro[cyclohexane-1,9′-furo[2,3-f]quinazoline]-2′-carboxamide] | 100 to 1000 |
| COC(=O)C1CCCN(Cc2nc3cc(Cl)c4c(c3o2)C2(CCCCC2)NC(=O)N4)C1 (centres unmarked) [Example 130, Methyl 1-{5-chloro-7-oxo-7,8-dihydro-6H-spiro[[1,3]oxazolo[5,4-f]quinazoline-9,1′-cyclohexane]-2-ylmethyl}piperidine-3-carboxylate] | 10 to 100 |
| CC(C)(O)CNC(=O)c1cc2cc(Cl)c3c(c2o1)C1(CCCCC1)NC(=O)N3 [Example 331, 5′-Chloro-N-(2-hydroxy-2-methylpropyl)-7′-oxo-7′,8′-dihydro-6′H-spiro[cyclohexane-1,9′-furo[2,3-f]quinazoline]-2′-carboxamide] | 10 to 100 |
| CN1CCC(N(C)C(=O)c2cc3cc(Cl)c4c(c3o2)C2(CCCCC2)NC(=O)N4)CC1 [Example 426, 5′-Chloro-N-methyl-N-(1-methylpiperidin-4-yl)-7′-oxo-7′,8′-dihydro-6′H-spiro[cyclohexane-1,9′-furo[2,3-f]quinazoline]-2′-carboxamide] | 100 to 1000 |
| CNC(=O)C1CCN(C(=O)c2cc3cc(Cl)c4c(c3o2)C2(CCCCC2)NC(=O)N4)CC1 [Example 444, 1-({5′-Chloro-7′-oxo-7′,8′-dihydro-6′H-spiro[cyclohexane-1,9′-furo[2,3-f]quinazoline]-2′-yl}carbonyl)-N-methylpiperidine-4-carboxamide] | 10 to 100 |
| CCN(CCO)Cc1cc2cc(Cl)c3c(c2o1)C1(CCCCC1)NC(=O)N3 [Example 499, 5′-Chloro-2′-{[ethyl(2-hydroxyethyl)amino]methyl}-7′,8′-dihydro-6′H-spiro[cyclohexane-1,9′-furo[2,3-f]quinazoline]-7′-one] | 100 to 1000 |
| COCCNCc1nc2cc(F)c3c(c2o1)C1(CCCCC1)NC(=O)N3 [Example 223, 5-Fluoro-2-{[(2-methoxyethyl)amino]methyl}-7,8-dihydro-6H-spiro[[1,3]oxazolo[5,4-f]quinazoline-9,1′-cyclohexane]-7-one] | 100 to 1000 |
| O=C1Nc2c(Cl)cc3cc(C(=O)N4CCN(c5ccncc5)CC4)oc3c2C2(CCCCC2)N1 [Example 305, 5′-Chloro-2′-[4-(pyridin-4-yl)piperazine-1-carbonyl]-7′,8′-dihydro-6′H-spiro[cyclohexane-1,9′-furo[2,3-f]quinazoline]-7′-one] | 100 to 1000 |
| CC(=O)NCCNCc1cc2cc(Cl)c3c(c2o1)C1(CCCCC1)NC(=O)N3 [Example 569, N-[2-({5′-Chloro-7′-oxo-7′,8′-dihydro-6′H-spiro[cyclohexane-1,9′-furo[2,3-f]quinazoline]-2′-ylmethyl}amino)ethyl]acetamide] | 10 to 100 |
| O=C1Nc2c(Cl)cc3nc(CNC4CC4)oc3c2C2(CCCCC2)N1 [Example 36, 5-Chloro-2-[(cyclopropylamino)methyl]-7,8-dihydro-6H-spiro[[1,3]oxazolo[5,4-f]quinazoline-9,1′-cyclohexane]-7-one] | 10 to 100 |
